Among all 110,000 compounds or so, about 230 (0.21%) showed an effect of 50% or more. Some of the results follow.
Biological target: DPAP1 (Plasmodium falciparum, UniProt Q8IIJ9)
Assay: primary screen, percent inhibition; read by cleavage of a fluorogenic dipeptide substrate; higher = more effect of the substance
Design: species or system P. falciparum D10 trophozoite lysates; single well
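Further: 30 min substrate incubation versus DMSO and 10 µM JCP410 controls.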

DPAP1, sequence (Q8IIJ9 whole entry, looked up): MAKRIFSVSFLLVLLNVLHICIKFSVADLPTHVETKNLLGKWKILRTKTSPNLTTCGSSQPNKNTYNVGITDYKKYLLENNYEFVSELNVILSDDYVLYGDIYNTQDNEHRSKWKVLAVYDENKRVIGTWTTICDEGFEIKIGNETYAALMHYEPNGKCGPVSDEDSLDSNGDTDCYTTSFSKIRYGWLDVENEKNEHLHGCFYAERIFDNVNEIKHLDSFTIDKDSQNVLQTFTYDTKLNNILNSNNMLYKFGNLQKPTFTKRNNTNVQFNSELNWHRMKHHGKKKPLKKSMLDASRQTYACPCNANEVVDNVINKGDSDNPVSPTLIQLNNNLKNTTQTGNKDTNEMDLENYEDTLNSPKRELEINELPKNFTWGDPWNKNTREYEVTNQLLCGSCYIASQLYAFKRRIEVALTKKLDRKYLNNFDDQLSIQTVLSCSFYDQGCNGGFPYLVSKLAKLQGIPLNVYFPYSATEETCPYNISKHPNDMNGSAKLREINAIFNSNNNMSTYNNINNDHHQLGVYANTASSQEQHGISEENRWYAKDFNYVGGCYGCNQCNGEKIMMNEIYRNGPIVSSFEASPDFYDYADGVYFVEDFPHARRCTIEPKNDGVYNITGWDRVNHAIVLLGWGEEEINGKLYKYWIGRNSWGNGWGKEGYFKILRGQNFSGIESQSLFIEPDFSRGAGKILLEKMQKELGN

SMILES	% Inhibition @ 10 uM [%]
Cc1cc(NC(=O)c2cc(-c3ccc(F)cc3)on2)n(-c2ccccc2)n1	-0.601
O=C(CNS(=O)(=O)c1cccs1)N1CCC(Cc2ccccc2)CC1	-1.31
Cc1ccnc(O)c1	-1.08
O=C(c1ccc2c(c1)OCO2)N1CCC(CN2C(=O)c3cccc4cccc(c34)C2=O)CC1	-6.57
Cc1cc(S(=O)(=O)Nc2ccc(O)cc2)ccc1Cl	-1.29
CCOC(=O)c1cc(C)n(CC2CCC(C(=O)Nc3nccs3)CC2)c1C (stereo not shown)	-3.47
O=C(NCCCNC(=O)[C@@H]1C[C@@H]1c1ccccc1)[C@H]1C[C@H]1c1ccccc1	2.95
Cc1ccc2c(c1)c1c3n2CCN(CC(C)O)C3CCC1 (stereo not shown)	2.47
O=C(COc1ccc2c(c1)C(=O)CC1(CCCCC1)O2)NCc1ccc(F)cc1	1.37
O=C(CN1C(=O)c2ccccc2C1=O)Oc1ccc([N+](=O)[O-])cc1	-4.06
CCOC(=O)N1CCC(NC(=O)c2cc(-c3ccc(F)cc3)[nH]c2C)CC1	6.06
CCOc1ccc(CNC(=O)CSCc2cnn(-c3ccccc3)c2-n2cccc2)cc1	3.24
N#CC1=C(N)Oc2c(O)nc(S)nc2C1c1ccccc1 (stereo not shown)	-8.12
CC(=O)c1[nH]c2ccccc2c1-c1ccccc1	0.132
Cc1occc1-c1nc(-c2ccccc2)no1	-0.48
CC1(C)CC(=O)C2=C(C1)N=C(S)C(C#N)C2c1ccc(Br)cc1 (stereo not shown)	20.1
Clc1ccc(-n2ncc3c(NCc4ccccn4)ncnc32)cc1	-7.64
CCOc1nonc1NC(=O)CSc1nc2ccccc2s1	-3.26
COc1ccc(C(=O)NC(CC(=O)O)c2ccc(OC)c(OC)c2)cc1OC (stereo not shown)	-1.47
Cc1c(Cl)cccc1-n1ncc(C(=O)Nc2cccnc2)c1C1CCN(C(=O)OC(C)(C)C)CC1	4.76
CC(C)CC(NC(=O)c1ccc(NC(=O)N(C)[C@@H]2CCN(Cc3ccccc3)C2)cc1)C(=O)NCC#N (stereo partly shown)	-2.35
C/C=C(\C)CN1CCN(C(=O)OCC)CC1	-4.04
O=C(Nc1ccc(Br)cc1)c1cccnc1	0.827
CCOC(=O)C1=C(c2ccccc2)OC(N)=C(C#N)C12C(=O)Nc1ccc(C)c(Br)c12 (stereo not shown)	2.7
Cc1cc(C(=O)NCCCN2CCCC2=O)c2c(C)nn(-c3ccccc3)c2n1	-6.86
CCCCNC(=O)CCc1nc2cccnc2n1Cc1ccccc1	3.96

SMILES	% Inhibition @ 10 uM [%]
Cc1onc(-c2ccccc2)c1C(=O)NC(C)C	1.88
CCN(Cc1ccccc1)c1c(-c2ccccc2)c(=O)c1=O	7.14
COCCNC(=O)Cn1nc(C)n2c(cc3ccccc32)c1=O	4.55
O=C(CCN1N=C(c2ccccc2)CCC1=O)NCC1CCCO1 (stereo not shown)	-1.79
CCOC(=O)NC(=O)Nc1ncccn1	1.32
Cc1ccc(C(=O)NCC(C)(C)CNC(=O)c2ccc(C)o2)o1	-2.46
CC(=O)c1cc(C(=O)Nc2nccs2)c2ccccn12	1.44
COc1ccc(OCC(=O)Nc2nc(-c3ccc(OC)cc3)cs2)cc1	-4.5
Cc1ccc(-c2csc3ncnc(N4CC(C)OC(C)C4)c23)cc1 (stereo not shown)	-1.22
COc1ccc2c(c1)C=C1C(=CC(=O)CC1(C)C)O2	-4.67
CCOC(=O)c1c(NC(C)=O)sc([N+](=O)[O-])c1-c1ccccc1	-5.35
Cc1ccc(S(=O)(=O)NC(C)(C)C)cc1[N+](=O)[O-]	-2.55
CCCN(CCC)S(=O)(=O)c1ccc([N+](=O)[O-])cc1	7.87
Cc1cccc2c3nn4c(S)n[nH]c4nc-3nc12	2.56
CCN(CC)CCCOc1ccc(C)cc1C	1.35
Cc1cc(O)c(C2=Nc3ccccc3SC(c3ccc4c(c3)OCO4)C2)c(=O)o1 (stereo not shown)	-2.18
CCc1nnc(NC(=O)Cn2ncc3c4ccccc4nc-3c2O)s1	-2.96
O=C1O/C(=C\c2ccc3ccc(Cl)cc3n2)c2ccccc21	-5.38
c1cc(N2CCOCC2)nnc1N1CCOCC1	-0.0508
CC(C)OCCCNc1nc2c(=O)n(C)c(=O)n(C)c2[nH]1	-1.02
Cc1ccc(-n2c(C)cc(/C=C3/NC(=O)NC3=O)c2C)nc1	-2.5
CC1CCN(C(=O)Cn2ncc3c4ccccc4n(Cc4ccccc4)c3c2=O)CC1	4.95
COc1ccc(/C=C2/NC(=O)N(c3ccccc3)C2=O)c(C)c1	-3.72
Cc1ccc(OCCCCn2ccnc2)c(C)c1	1.35
CN1CCN(C/C=C/c2ccc(N(C)C)cc2)CC1	-4.04
O=C1/C(=C/c2ccco2)N=C(N2CCOCC2)N1c1cccc(Cl)c1	1.21

SMILES	% Inhibition @ 10 uM [%]
CCOc1cccc(NC(=O)c2ccccc2C)c1	0.145
COc1ccc(CC(=O)n2nc(-c3ccccc3)nc2NCc2ccccc2)cc1OC	2.31
OC1CCCN(Cc2cc(F)ccc2F)C1 (stereo not shown)	-5.89
CC(=O)c1nn(-c2ccc(Br)cc2)c(-c2cccs2)c1C#N	-1.38
Cc1ccc(-n2ncc3c(NCc4ccccn4)ncnc32)c(C)c1	-3.74
CCOCC(O)CSCc1ccccc1 (stereo not shown)	-1.22
COc1ccccc1CC(=O)Nc1ccccc1C(=O)O	-4.72
Cn1cc(Cl)c(C(=O)Nc2cn(Cc3ccc(Cl)cc3)nc2Br)n1	1.02
COc1ccccc1NC(=O)c1c(OC)cccc1OC	-2.15
OC1CCN(C(=S)NC23CC4CC(CC(C4)C2)C3)CC1	7.02
COc1ccc(C(=O)CC2(O)C(=O)N(Cc3ccc(Cl)cc3)c3ccccc32)cc1OC (stereo not shown)	0.993
COc1cc2c(cc1OC)CN(Cc1ccc3c(c1)OCO3)CC2	-2.56
CSc1nn(CCc2ccncc2)c(=S)s1	5.8
Cc1ccc(-c2ccc(/C=C(\NC(=O)c3ccccc3)C(=O)NCC3CCCO3)o2)cc1 (stereo not shown)	-3.04
COc1ccc(-c2noc(CC(=O)N(C)Cc3ccccc3)n2)cc1	-1.39
COc1ccc(C(=O)N/C(=C\c2ccccc2)C(=O)NCCO)cc1	-5.34
CC1=C(C(=O)OC2CCCC2)C(c2cccc(F)c2)C2=C(O)CCCC2=N1 (stereo not shown)	0.916
Cc1ccc(S(=O)(=O)CCSc2cccc(C(=O)Nc3cccc(F)c3)c2)cc1	-1.74
COc1ccc(Cl)c(NC(=O)c2sc3nc(-c4ccncc4)ccc3c2N)c1	1.86
CCOc1ccc(CCNC(=O)CCc2c(C)nc3ncnn3c2C)cc1OCC	2.93
CCCCN(CC#CC(O)(c1ccccc1)c1ccccc1)CCO	-6.95
Nc1c([N+](=O)[O-])nnc2nc(-c3ccccc3)nn12	1.66
CCCC1=NN2C(=N)/C(=C\c3coc4ccccc4c3=O)C(=O)N=C2S1	5.77
COc1cc(OC)cc(C(=O)NC2CCCc3ccccc32)c1 (stereo not shown)	2.48
CCCC1=C(C(=O)OCC)C2(C(=O)Nc3ccccc32)C(C#N)=C(N)O1 (stereo not shown)	-2.5
CCc1cc2c(cc3c(=O)n(CC(=O)NCCc4ccccc4)nc(CC)n32)s1	0.0198

SMILES	% Inhibition @ 10 uM [%]
CN1Cc2c(N3CCOCC3)nc(SCc3ccccc3)c(C#N)c2CC1(C)C	-2.8
CC(C)N(Cc1nc(-c2ccccc2)no1)C(=O)c1ccccc1Cl	-4.82
CN1CCN(C(=O)/C(=C/c2cn(C)c3ccccc23)NC(=O)c2ccco2)CC1	3.24
O=C(c1cccs1)N(Cc1ccc(Cl)cc1)Cc1ccco1	-0.45
Cc1cc(C)c2oc(C(=O)N(Cc3cccc(Cl)c3)C3CCS(=O)(=O)C3)cc(=O)c2c1 (stereo not shown)	5.06
COc1ccc(CCNCc2ccncc2)cc1	26.6
CC(=O)N1N=C(c2ccc(O)cc2)CC1c1ccccc1 (stereo not shown)	5.12
CCN(CC)c1ccc(/C=C(\C#N)c2nc3ccccc3[nH]2)c(O)c1	-4.75
CC12CN(C(=O)c3ccccc3)CC(C)(CN(C(=O)c3ccccc3)C1)C2	1.67
COc1ccc(C=O)cc1CSc1ccccn1	17
O=C(Nc1cccnc1)C1c2ccccc2C(=O)N2CCc3ccccc3C12 (stereo not shown)	-3.31
CCOc1cccc(/C=C2\SC(=O)N(Cc3ccccc3)C2=O)c1O	1.21
Cc1cc(C)n(CCCO)c(=O)c1C#N	-9.24
Cc1ccc(C2c3[nH]c4ccccc4c3CC3C(=O)N(C)C(=S)N32)cc1 (stereo not shown)	9.53
CCOc1cccc(NCc2ccccc2)c2c(C)nc(C)c1-2	-0.85
Cc1ccc(-c2cn3nc(N4CCCC(C(=O)NCc5ccc(Cl)cc5)C4)sc3n2)cc1 (stereo not shown)	-5.88
Cc1ccc2cc(C#N)c(SCC(N)=O)nc2c1	-0.413
CC1=C(C(=O)Nc2cccnc2)C(c2ccc3c(c2)OCO3)n2nc(CCCO)nc2N1 (stereo not shown)	-10.7
O=C(c1ccc2c(c1)OCO2)N1CCN(c2ncccn2)CC1	-2.82
Cc1ccc2oc(-c3ccc(O)cc3)nc2c1	-3.69
COc1cc(OC)c(C2C(C#N)=C(N)Oc3[nH]nc(-c4ccc(C)cc4)c32)cc1OC (stereo not shown)	-1.19
Cc1ccc2c(cnn2C(=O)CCCC(=O)NC2CCCC(C)C2C)c1 (stereo not shown)	-4.71
CCOc1ccc2nc(N3CCC(C(=O)N4CCN(Cc5ccccc5)CC4)CC3)sc2c1	-1.58
Cc1cccc(-c2cc(C(=O)NCc3cccnc3)c3ccccc3n2)c1	1.67
COc1ccccc1OCc1ccoc1C(=O)O	-9.32

From publication PMC6919601, “Identification of Plasmodium dipeptidyl aminopeptidase allosteric inhibitors by high throughput screening” (PLoS ONE, 2019)
